The source of these data is article PMC4336329 (PLoS ONE, 2015).

In all, about 310,000 compounds went through this assay and about 2,200 (0.71%) showed an effect of 50% or more. The effect is printed as a negative number. Some of the results follow.

The target of the experiment is human ether-à-go-go-related gene (hERG) potassium channel (human, UniProt Q12809). The experiment in a line: primary screen, population patch clamp on CHO cells stably expressing hERG.
Chain of human ether-à-go-go-related gene (hERG) potassium channel (Q12809 whole entry, looked up): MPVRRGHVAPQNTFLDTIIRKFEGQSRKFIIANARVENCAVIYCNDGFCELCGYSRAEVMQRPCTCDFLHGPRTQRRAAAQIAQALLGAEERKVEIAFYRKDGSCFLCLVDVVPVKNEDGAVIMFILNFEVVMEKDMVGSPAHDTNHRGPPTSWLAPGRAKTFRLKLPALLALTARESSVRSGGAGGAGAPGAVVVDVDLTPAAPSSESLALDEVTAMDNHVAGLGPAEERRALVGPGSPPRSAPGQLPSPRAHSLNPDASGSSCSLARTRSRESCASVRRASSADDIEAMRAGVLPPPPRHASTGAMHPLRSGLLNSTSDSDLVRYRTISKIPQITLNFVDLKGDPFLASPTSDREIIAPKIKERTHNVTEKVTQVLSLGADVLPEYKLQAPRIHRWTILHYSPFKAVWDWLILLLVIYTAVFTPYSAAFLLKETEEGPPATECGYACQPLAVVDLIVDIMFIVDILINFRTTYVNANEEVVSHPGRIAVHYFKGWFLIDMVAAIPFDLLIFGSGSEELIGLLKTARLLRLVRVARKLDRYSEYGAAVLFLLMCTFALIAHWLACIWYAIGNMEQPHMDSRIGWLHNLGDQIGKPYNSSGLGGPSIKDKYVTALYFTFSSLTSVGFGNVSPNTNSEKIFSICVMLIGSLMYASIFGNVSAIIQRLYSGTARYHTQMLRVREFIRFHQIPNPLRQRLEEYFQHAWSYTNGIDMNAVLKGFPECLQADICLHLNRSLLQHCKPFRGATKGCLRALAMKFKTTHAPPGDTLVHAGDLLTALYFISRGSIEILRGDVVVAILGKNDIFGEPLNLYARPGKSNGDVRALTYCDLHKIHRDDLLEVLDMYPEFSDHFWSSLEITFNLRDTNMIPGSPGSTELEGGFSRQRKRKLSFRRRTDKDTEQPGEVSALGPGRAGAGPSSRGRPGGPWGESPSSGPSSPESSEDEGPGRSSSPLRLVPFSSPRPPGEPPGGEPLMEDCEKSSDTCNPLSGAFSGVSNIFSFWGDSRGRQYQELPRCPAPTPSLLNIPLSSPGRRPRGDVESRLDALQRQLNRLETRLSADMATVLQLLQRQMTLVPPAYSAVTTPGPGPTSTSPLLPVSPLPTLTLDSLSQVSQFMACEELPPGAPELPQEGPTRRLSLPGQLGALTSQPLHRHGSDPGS
On to `Cc1ccc(-n2c(=S)[nH]c3c(oc4ccccc43)c2=O)cc1C`, for which the “hERG current change (%, negative = inhibition) at 1uM” value worked out at 7.36%. On to `CCOC(=O)c1cnc(SC)nc1Oc1cccc(NS(=O)(=O)c2ccccc2)c1`, for which the “hERG current change (%, negative = inhibition) at 1uM” value was 11.5%. The value for `O=C(NCCS(=O)(=O)NCc1ccc(F)cc1)c1ccccc1` was 4.82%; that for `Cc1cccc(CSc2nnc(-c3ccco3)o2)c1` was 8.25%.

In the case of `COc1ccc(CCNC(=O)C2CCN(C(=O)c3ccc(Cl)cc3)CC2)cc1OC`, the “hERG current change (%, negative = inhibition) at 1uM” value was found to be 14.2%.

Take `Cc1c(C)c2ccc(OC(C)C(=O)NCCCN3CCOCC3)c(C)c2oc1=O` (stereo not shown): the “hERG current change (%, negative = inhibition) at 1uM” value is 12.6%. Turning to `O=C(NCC1CCCO1)C1CCCN1C(=O)Nc1ccccc1[N+](=O)[O-]` (stereo not shown), the “hERG current change (%, negative = inhibition) at 1uM” value came to 5.55%. The value for `O=C(CCCc1ccccc1)Nc1ccccc1C(F)(F)F` was 9.86%; that for `C#CCn1c(=NC(=O)c2ccccc2[N+](=O)[O-])sc2cc(S(C)(=O)=O)ccc21` was 13.3%; that for `COc1ccc(N(CC(=O)NN=C2CCCC2)S(=O)(=O)c2ccccc2)cc1` was 10.3%.

On to `Cn1c(=O)n(CC(=O)NCC2CCCO2)c(=O)c2c3c(sc21)CCCC3` (stereo not shown), for which the “hERG current change (%, negative = inhibition) at 1uM” value was 17.4%. The value for `COc1ccc(C2=CC(=O)CCC2)cc1` was 7.73%; that for `COc1ccc(OC(C)c2nnc(N)s2)cc1` (stereo not shown) was -2.34%; that for `N#Cc1cccc(-c2cn(S(=O)(=O)c3ccc(Cl)cc3)nc2N)c1` was 1.12%. The value for `CC(C)CCN1CCN(Cc2cccc3cccnc23)CC1CCO` (stereo not shown) was 6.68%.

Consider `C=C(CC1([C@@H](NP(=O)(c2ccccc2)c2ccccc2)[C@H]2C[C@@H]2CCCC)CC1)c1ccccc1`, for which the “hERG current change (%, negative = inhibition) at 1uM” value is 6.61%. The value for `COC(=O)c1ccc(C)c(NC(=O)CCSc2ccccc2)c1` was 1.86%; that for `O=C(O)C1CCC(N2C(=O)C3C4CCC(C4)C3C2=O)CC1` (stereo not shown) was 8.38%.

With `C[C@H](CCC(=O)[O-])[C@H]1CC[C@H]2[C@@H]3[C@H](O)C[C@@H]4C[C@H](O)CC[C@]4(C)[C@H]3C[C@H](O)[C@]12C.[Na+]`, the “hERG current change (%, negative = inhibition) at 1uM” value stood at 8.59%. In the case of `CCc1cc(=O)oc2cc(OCC(=O)N3CC[C@@]4(O)CCCC[C@H]4C3)ccc12`, the “hERG current change (%, negative = inhibition) at 1uM” value was determined as 9.26%. The value for `O=C(COc1ccc(F)cc1)Nc1nnc(C2CC2)s1` was 4.55%; that for `C1CCc2c(nc3nnnn3c2N2CCOCC2)C1` was 4.18%. For the compound `CCc1cccc(NC(=O)CCC(=O)N2CCSc3ccccc32)c1`, the “hERG current change (%, negative = inhibition) at 1uM” value is given as -3.94%. Turning to `O=C(NCCCn1ccnc1)C(=O)NCC1OCCN1S(=O)(=O)c1ccc(F)cc1` (stereo not shown), the “hERG current change (%, negative = inhibition) at 1uM” value turned out to be 11.4%. The value for `Cc1cc(Oc2cnn(C(C)(C)C)c(=O)c2Cl)cc(C(C)C)c1` was 10.7%; that for `COc1ccc(CCN2CC(C(=O)NCCc3cn[nH]c3)CCC2=O)cc1` (stereo not shown) was 2.08%. Take `Cc1cccc(OCC(=O)N/N=C/C=C/c2ccco2)c1`: the “hERG current change (%, negative = inhibition) at 1uM” value was 12.6%. The value for `CC(C)(C)N(Cc1nc(-c2ccccc2)no1)C(=O)c1ccc2c(c1)OCO2` was 10.5%; that for `Cc1ccc(N2CCOCC2)c2c1C(=O)c1ccccc1C2=O` was 3.77%; that for `CC(=O)Nc1ccc(N=Cc2c(O)c(C(=O)Nc3ccccc3)cc3ccccc23)cc1` was 11.9%. In the case of `CC(C)CN(C(=O)c1cccc(F)c1)c1c(N)n(CC(C)C)c(=O)[nH]c1=O`, the “hERG current change (%, negative = inhibition) at 1uM” value worked out at 18.5%. Turning to `C=CCn1c(C)cc(C(=O)CSc2nc3ccccc3[nH]2)c1C`, the “hERG current change (%, negative = inhibition) at 1uM” value is on record as -2.87%. The value for `O=C(CCNS(=O)(=O)c1cccc2nsnc12)NC1CCN(Cc2ccccc2)CC1` was 4.44%; that for `COc1cccc(C(=O)/C=C/Nc2cccc(O)c2)c1` was 10.9%; that for `Fc1ccc(C2c3[nH]c4ccccc4c3CCN2Cc2cccn2-c2ncccn2)cc1` (stereo not shown) was 1.09%.

Consider `C=CCn1c(=O)c2c3c(sc2n2c(Nc4ccc(OC)cc4)nnc12)CCCC3`, for which the “hERG current change (%, negative = inhibition) at 1uM” value is reported as 14.7%. Regarding `CCCCn1nnnc1SCC(=O)Nc1ccc(F)cc1`, the “hERG current change (%, negative = inhibition) at 1uM” value is 8.13%.

`CC(=O)c1c(C)[nH]c(C(=O)Nc2ccccn2)c1C`: the “hERG current change (%, negative = inhibition) at 1uM” value is given as 11.1%.

For the compound `Cc1ccc2sc(NC(=O)CSc3nc(C)cc(C)c3C#N)nc2c1`, the “hERG current change (%, negative = inhibition) at 1uM” value turned out to be 0.196%.

Take `COc1ccc(NS(=O)(=O)c2csc(C(=O)N3CCCC3)c2)c(OC)c1`: the “hERG current change (%, negative = inhibition) at 1uM” value came to 4.64%.

Take `O=C(/C=C/Nc1ccccc1)c1cnc(-c2ccccc2)s1`: the “hERG current change (%, negative = inhibition) at 1uM” value came out at 10.1%.

As for `Cc1cc(C)cc(N2C(=O)CC(n3nc(C)cc3C)C2=O)c1` (stereo not shown), the “hERG current change (%, negative = inhibition) at 1uM” value was determined as 8.37%.

On to `Cc1ccc(NC(=O)c2ccc(-n3cncn3)c([N+](=O)[O-])c2)cc1F`, for which the “hERG current change (%, negative = inhibition) at 1uM” value stood at 7.64%.
